Several values for one entry are separate records, joined by “and”; a condition that tells them apart may be missing. Equal entries are not always repeated. In all, about 150,000 compounds went through this assay and about 540 (0.36%) showed an effect of 50% or more. The list shows a part of the results.
Tested on: Plasmodium falciparum
Experiment: Primary screen in NF54 nanoGlo assay, in single point, at 2uM, 72h; a lower Z score goes with more inhibition
Assay type: functional, Erythrocyte
Details: timepoint 72 hour

Row | SMILES | % Inhibition | Z score | % Inhibition (2 µM) | Z score (2 µM)
1 | CCCOc1ccc(CN2C[C@H]3CCN(C)[C@H]3C2)cc1Cl | -15% | 1.4 | – | –
2 | O=C(CCN1CCOCC1)N1CCC2(CCCC2)C1 | -7% | 1.31 | – | –
3 | Cc1nnc(Cn2cnc3c(C)c(C)ccc3c2=O)[nH]1 | -7% | 1.44 | – | –
4 | COc1cc(C(=O)Nc2ccc(Nc3ccc(C)nn3)cc2)cc(OC)c1OC | 13% | -2.29 | – | –
5 | CC(=O)OCC(=O)Nc1cc(S(C)(=O)=O)ccc1Cl | -7% | 0.81 | – | –
6 | COc1ccc(S(=O)(=O)N[C@@H](Cn2nccn2)C(C)C)cc1Cl | -1% | 0.2 | – | –
7 | C[C@@H](CCn1ccnc1-c1cc(Cl)ccc1Cl)N1CCN(C)CC1 | -3% | 0.66 | – | –
8 | CCc1ccc(C(=O)N2C[C@@H](NC(C)=O)[C@H](c3nccn3C)C2)o1 | -2% | 0.28 | – | –
9 | CC(=O)NCc1cc2n(n1)CCN(c1ncc(F)c(N3CCCC3)n1)C2 | -7% | 1.24 | – | –
10 | COCc1ncc(C)n1CCNS(=O)(=O)Cc1ccccc1 | 11% | -1.32 | – | –
11 | C#CCN(C(=O)c1cnn(-c2ccncc2)c1C)c1nccs1 | 1% | -0.15 | – | –
12 | COc1cc(CN2CCC[C@H](c3nccs3)C2)cc(OC)c1OC | -9% | 1.18 | – | –
13 | COc1ccc(Cc2nc(NC(=O)C3(c4ccc(OC)cc4)CCOCC3)n[nH]2)cc1 | – | – | -14% and -6% | 1.79 and 0.77
14 | C[C@H](O)CN1CCC(CN(C)Cc2ccc(Cl)s2)CC1 | 0% | 0 | – | –
15 | COCC1=CCN(C(=O)NCc2cnc(N3CCOCC3)c(F)c2)CC1 | -3% | 0.29 | – | –
16 | Cc1nc(CN(C)Cc2cccc(-c3ccncc3)c2)cs1 | -1% | 0.19 | – | –
17 | C[C@@H](Cc1cc(C(=O)N(C)Cc2cc(-c3ccccc3)on2)on1)c1ccccc1 | -4% | 0.7 | – | –
18 | FC(F)(F)c1cc(-c2ccc(Cl)cc2)nc(Oc2ccc(-c3ccccc3)cc2)n1 | 9% | -1.01 | – | –
19 | Cc1cccc(O[C@@H](C)C(=O)N2CCc3[nH]ncc3C2)c1 | -7% | 0.97 | – | –
20 | COCCn1ccnc1C1CCN(C(=O)c2nnc3nc(C)cc(C)n23)CC1 | -2% | 0.2 | – | –
21 | O=c1[nH]c2ccccc2cc1-c1cc(NCc2ccccn2)nc2[nH]ccc12 | 3% | -0.57 | – | –

Row | SMILES | % Inhibition | Z score | % Inhibition (2 µM) | Z score (2 µM)
22 | Cc1cc(N)n(CC(=O)N2CCCC[C@H]2c2nc3ccccc3[nH]2)n1 | -6% | 0.89 | – | –
23 | CC(C)(C)NC(=O)C(=O)Nc1nc(-c2ccccn2)cs1 | 10% | -0.99 | – | –
24 | COc1ccc(-c2nc3cc(C)ccn3c2NC(=O)CCC2CCCC2)cc1 | 5% | -0.5 | – | –
25 | Cn1ccnc1C(=O)N[C@H]1CCc2n[nH]c(=O)n2CC1 | -12% | 1.86 | – | –
26 | C[C@H](NC(=O)Cc1csc(NC(=O)c2cccc(O)c2)n1)C1CC1 | -16% | 3.43 | – | –
27 | CN(C)C1(CNS(=O)(=O)c2ccc(C(N)=O)cc2)CCCC1 | -9% | 1.39 | – | –
28 | CN(C)c1nc(N)cc(-c2cccc3cccnc23)n1 | 57% | -7.96 | – | –
29 | Cn1c(=O)c2c(ncn2Cc2nc(C(C)(C)C)cs2)n(C)c1=O | 0% | 0.05 | – | –
30 | CC(C)c1noc(N2CCC(C3(C)OCCO3)CC2)n1 | -4% | 0.34 | – | –
31 | O=C(c1cnc(O[C@H]2CCOC2)c(Cl)c1)N1CCCC1 | -6% | 1.07 | – | –
32 | Cc1cccc(N2N=C(C(=O)NCCc3cccnc3)CCC2=O)c1 | -12% | 2.24 | – | –
33 | COCCN1CCCN(S(=O)(=O)c2ccc(F)c(F)c2)CC1=O | -10% | 0.97 | – | –
34 | COc1ccc(C(O)(c2ccc(OC)cc2)c2ccc(CN(CCN3CCOCC3)Cc3ccc(C)cc3)o2)cc1 | -4% | 0.58 | – | –
35 | COCc1cc(N[C@@H](Cn2cccn2)c2ccccc2)ncn1 | -6% | 0.59 | – | –
36 | CC(C)NC(=O)[C@@]1(CCO)CCN(c2ncccn2)C1 | -8% | 1.59 | – | –
37 | CCOc1ccc(C(=O)N2CC(N3C(=O)CCC3=O)C2)cc1OCC | 0% | -0.05 | – | –
38 | O=C(NCCCn1c(-c2ccncc2)nc2cccnc21)Nc1cccc(Br)c1 | -18% | 1.56 | – | –
39 | Cc1ccc(NC(=O)CN2CCc3[nH]cnc3C2)nc1 | -7% | 1.16 | – | –
40 | CCc1ccc2c(c1)c(-c1ccc(Cl)cc1)c(C(=O)NCCN1CCCCC1)n2C | 3% | -0.41 | – | –
41 | O=C1CC[C@H](C(=O)NC(Cc2ccccc2Cl)c2ccccc2)N1 (stereo partly specified) | -3% | 0.41 | – | –
42 | FC(F)(F)c1cnc(N2CCOC3(CCOCC3)CC2)s1 | 105% | -19.68 | – | –

Row | SMILES | % Inhibition | Z score | % Inhibition (2 µM) | Z score (2 µM)
43 | Cc1noc(C)c1C(=O)NCC1(OCCO)CCCC1 | -2% | 0.21 | – | –
44 | Cc1ccc(CNC(=O)N2CC(n3ccnc3C)C2)cc1 | -10% | 1.28 | – | –
45 | CCN1CCN(c2nc(-c3ccccc3)ncc2C(=O)NC2CCCCC2)CC1 | -4% | 0.79 | – | –
46 | CS(=O)(=O)NC[C@H]1COCCN1C(=O)Nc1nc2ccccc2s1 | -10% | 2.05 | – | –
47 | CCCN(CC(=O)Nc1c(C#N)c(C)c(C)n1C[C@H]1CCCO1)Cc1nnc(-c2cccs2)o1 | -12% | 1.57 | – | –
48 | Cc1cc(NC(=O)c2ncc(-c3ccccc3)o2)sn1 | 1% | -0.08 | – | –
49 | COCCN1C[C@]2(CCCN(C(=O)NCc3nc(C(C)C)no3)C2)CCC1=O | 0% | -0.01 | – | –
50 | CCn1cc2ccc(NC(=O)c3scnc3C3CC3)cc2n1 | -4% | 0.37 | – | –
51 | C=CC[C@]1(CO)CCCN(C(=O)c2cc(=O)c(OC)c[nH]2)C1 | -9% | 1.76 | – | –
52 | CC1=C(c2ccccc2)S(=O)(=O)N=C1N1CCC(NC(=O)[C@@H]2CCCO2)CC1 | -6% | 1.1 | – | –
53 | NC(=O)CC1(NC(=O)Cc2ccc(Cl)c(Cl)c2)CCC1 | -9% | 1.36 | – | –
54 | CNC(=O)[C@H](C)Oc1ccc(Br)cc1 | -11% | 1.09 | – | –
55 | Cc1cc2c(N3CCN(C(=O)CN4CCOCC4)CC3)nccc2o1 | -9% | 1.25 | – | –
56 | O=C(NCCCN1CCOCC1)c1cc2n(n1)CCN(Cc1ccc(F)cc1)C2=O | -2% | 0.49 | – | –
57 | COC(=O)[C@@H]1C[C@@H](NC(=O)c2cc(C(F)(F)F)ccc2Cl)CN1 | -6% | 1.15 | – | –
58 | Cc1ccc(S(=O)(=O)N2CCc3cc(S(=O)(=O)NC4CCCC4)ccc32)cc1C | -11% | 1.47 | – | –
59 | O=c1[nH]c2ccc(Cn3cc([C@H]4CCOC4)nn3)cc2[nH]1 | -6% | 1.03 | – | –
60 | O=C(c1ccc(Cl)s1)N1CC[C@H](Cc2nnc(C3CCOCC3)o2)C1 | -8% | 1.56 | – | –
61 | O=C(N[C@H](c1ccccc1)c1nnn[nH]1)c1ccccc1C1CCC1 | 1% | -0.13 | – | –
62 | COC1CCN(c2ccc(NC(=O)CNS(=O)(=O)c3c(F)cccc3F)cc2)CC1 | -8% | 1.04 | – | –
63 | Cc1ncc(C(=O)NCc2nc(N(C)C)no2)c(C(C)C)n1 | 2% | -0.25 | – | –

Row | SMILES | % Inhibition | Z score | % Inhibition (2 µM) | Z score (2 µM)
64 | O=C(NCCOc1ccccc1)c1cc2n(n1)CCN(Cc1cccc(C(F)(F)F)c1)C2=O | -11% | 1.37 | – | –
65 | CCn1nc(Cc2c(Cl)cccc2Cl)nc1[C@H]1CCS(=O)(=O)C1 | -5% | 0.56 | – | –
66 | Cc1cc(F)ccc1[C@@H]1CCCN1S(=O)(=O)c1ccnn1C | -9% | 1.16 | – | –
67 | O=C(CNS(=O)(=O)c1cc(F)c(F)cc1F)Nc1cccnc1 | 1% | -0.21 | – | –
68 | CCOC(=O)N1CCN(c2cc(C3CCN(C)CC3)ncn2)CC1 | -8% | 1.04 | – | –
69 | CC(C)Oc1ccc([C@@H](O)CNc2ccc(C#N)nc2)cc1 | -8% | 1.47 | – | –
70 | Cc1ccc(N2CCC(N3C[C@H](NS(C)(=O)=O)[C@@H](C(C)C)C3)CC2)cc1 | -12% | 1.58 | – | –
71 | COC(=O)c1c(NC(=O)c2ccccc2)c2cc(NCc3ccc(OCCO)cc3)cnc2n1C[C@H]1CCCO1 | -20% | 2.29 | – | –
72 | Cc1nn(C(C)C)cc1CN[C@H]1CCCN(Cc2ccccc2)C1=O | 28% | -2.82 | – | –
73 | Cc1cccc(N2CCN(C(=O)c3cnn4c(C(F)(F)F)cc(-c5ccccc5)nc34)C[C@@H]2C)c1 | 2% | -0.47 | – | –
74 | COc1ncccc1C(=O)NC[C@H]1CCCN(c2nccs2)C1 | 16% | -2 | – | –
75 | CC(=O)N1CCC(C(=O)N2CCN(c3nonc3C)CC2)CC1 | -16% | 1.63 | – | –
76 | COc1ncccc1CN(CCC(N)=O)c1ccc(F)cc1 | 6% | -0.59 | – | –
77 | CC(C)[C@H](Cn1nccn1)NS(=O)(=O)c1ccccc1 | -3% | 0.51 | – | –
78 | CCS(=O)(=O)c1ccccc1C(=O)Nc1ccc(N2C(=O)c3ccccc3C2=O)c(Cl)c1 | -5% | 0.65 | – | –
79 | Cc1sc(-c2cc(C(F)(F)F)[nH]n2)cc1S(=O)(=O)N1C[C@H]2CC[C@@H](C1)[C@@H]2N | -3% | 0.34 | – | –
80 | COc1ccc2nc(NC(=O)C(=O)NCCc3ccc4c(c3)OCCO4)sc2c1 | -43% | 5.1 | – | –
81 | CC[C@@H](C)[C@H](NC(=O)Nc1cccc(C(F)(F)F)c1)C(=O)O | -18% | 2.23 | – | –
82 | Fc1ccc2oc(Cn3nnc(-c4ccsc4)n3)nc2c1 | -7% | 0.76 | – | –
83 | CN1CCC2(CC1)CN(C(=O)c1ccc(OCC(F)(F)F)o1)[C@@H]1COC[C@@H]12 | -1% | 0.16 | – | –

Reference: ChEMBL document CHEMBL4888484, “Replenishing the malaria drug discovery pipeline: Screening and hit evaluation of the MMV Hit Generation Library 1 (HGL1) against asexual blood stage Plasmodium falciparum ,using a nano luciferase reporter read-out” (2022)
